The results in this text go back to the RNAGym collection of RNA variant scans (doi:10.7554/elife.90254).

Read counts are not given, so values of variants with three or more changes are uncertain.

B1: LINE1-mini (parent)
chain: GGCAGAGCUCAACACAGCGUGGCAAAGUGGCUGUGGCUAGACUGCC

The series covers variants of B1. The series can be described thus: self-cleavage, relative activity (ratio to wild type); higher = more cleavage; in vitro, sequencing; the parent is a self-cleaving ribozyme.
GGCAGAGCUCAACACAGCGCGGCAAAGUGGCUGUGUCUAGACUACC: the self-cleavage is 0.02. The same measure for GGCAGAGCUCAACACAGCGCGGCAAAGUGUUUGUGGCUAGACUGAC: 0.22; for GGCAGAGCUCAACACAGCGGGACAAAGUGGCUGUGGCUAGACUACC: 0.28.

In the case of GGCAGAGCUCAACACAGCGAGGCAAAGUGGCUGUGGCAAUACUGCU, the self-cleavage amounted to 0.03. For the variant GGCAGAGCUCAACACAGCGCGGCAAAGUGGCUGUGGCUAGACUGGG, the self-cleavage was found to be 0.05. Regarding GGCAGAGCUCAACACAGCGAGGCAAAGUGGCUGUCGAUAGACUGCC, the self-cleavage is 0.04.

On to GGCAGAGCUCAACACAGCGCGCCAAAGUGGCGGUGGCUAGACUGCC, for which the self-cleavage turned out to be 0.06. The same measure for GGCAGAGCUCAACACAGCGCGGCACAGUGGCUGUGGUUAUACUGCC: 0.25. To GGCAGAGCUCAACACAGCGCCGCUAAGUGGCUGUGGCUCGACUGCC belongs 0; to GGCAGAGCUCAACACAGCGGGGUAAAGUGGCUCUGGCUAGACUGCC, 0.06. To GGCAGAGCUCAACACAGCGGGGCAAAGUGGCUGUGGCUAGCCUGCA belongs 0; to GGCAGAGCUCAACACAGCGGGGCAAAUUGGGUGUGGCUAGACUCCC, 0.01. Regarding GGCAGAGCUCAACACAGCGGGGCAUAGUGGCUGUGGCUAUACUGCC, the self-cleavage amounted to 0.17. To GGCAGAGCUCAACACAGCGAGGCAAAGUGACUGUGGCUAGACUUCC belongs 0.09; to GGCAGAGCUCAACACAGCGCGGCAAAGUGGCUGUGGCUAGACUGUA, 0.12. As for GGCAGAGCUCAACACAGCGCGGCAACUUGGCUGUGGUUAGACUGCC, the self-cleavage is 0. On to GGCAGAGCUCAACACAGCGGGGCAAAGUGGCUGUGGCUAGUCUACC, for which the self-cleavage stood at 0.06. On to GGCAGAGCUCAACACAGCGGGGCAGAGUGGCUGUGGAUAGACUGCC, for which the self-cleavage worked out at 0.02. Turning to GGCAGAGCUCAACACAGCGCGGCUAAGUGGCUGUAGCUAGACUGCC, the self-cleavage was 0.01. In the case of GGCAGAGCUCAACACAGCGGCGCAAAGUGGCUGUGGCUGGACUGCC, the self-cleavage is 0.04. The same measure for GGCAGAGCUCAACACAGCGCGGCAAAGUUGCUGUCGCUAGACUGCC: 0.04. As for GGCAGAGCUCAACACAGCGGGGGAAAGAGGCUGUGGCUAGACUGCC, the self-cleavage was 0.93.

For GGCAGAGCUCAACACAGCGCGGCAAAGUGGUUGUGGCUAGAUUGCC, the self-cleavage is 0.13.

As to GGCAGAGCUCAACACAGCGCGCCUAAGUGGCUGUGGCUAGACUGCC, the self-cleavage worked out at 0.19. GGCAGAGCUCAACACAGCGAGGCAAAGUGGCUCUGGCUAGACUUCC: the self-cleavage is 0.01. For GGCAGAGCUCAACACAGCGGGGCAAAUUGGCUGAGGCUAGACUGCU, the self-cleavage worked out at 0.03. The same measure for GGCAGAGCUCAACACAGCGGGGCAAUGUGGCUGGGGCUAGGCUGCC: 0; for GGCAGAGCUCAACACAGCGGGUCAAAGUGGCUCUGGCUAGACUGCC: 0.03; for GGCAGAGCUCAACACAGCGCGGCAUAGUGGCUGUGGCUAGACAGCC: 0.05.

As for GGCAGAGCUCAACACAGCGCGCCCACUUGGCUGGGGCUAGACUCCC, the self-cleavage was determined as 0.01. On to GGCAGAGCUCAACACAGCGGGGCACAGAGACUGUGGCUAGUCUGCC, for which the self-cleavage is 0.05. Take GGCAGAGCUCAACACAGCGAGGCAAAGUGUCUGUGUUUAAACUGCC: the self-cleavage was 0.07.

As to GGCAGAGCUCAACACAGCGGGCCAAAGUGGCUGUGGCUAGACUGAC, the self-cleavage is 0.11. GGCAGAGCUCAACACAGCGGGGCAAGGUGGCUGUGGCUAGACAGCU: the self-cleavage was determined as 0.01. Regarding GGCAGAGCUCAACACAGCGCGGCAAAUUGGCUGUCGCUAGACUGCC, the self-cleavage amounted to 0.08. Regarding GGCAGAGCUCAACACAGCGCGGCAAAGUGGCUAUGGCUAUACUGCC, the self-cleavage stood at 0.3.

On to GGCAGAGCUCAACACAGCGGGGCAAAGUGGCUCUGCCUAGACUGCA, for which the self-cleavage is 0.03. For the variant GGCAGAGCUCAACACAGCGCGGCAAAGUGGCUUUGGCUUGACUGCC, the self-cleavage came out at 0.08. For GGCAGAGCUCAACACAGCGGAGCAAAGUGGCGGUGGCUAGAGGGCC, the self-cleavage was determined as 0.03. Take GGCAGAGCUCAACACAGCGCACCAAAGUGGCUGUGGCUAGCCCGCA: the self-cleavage is 0.05.

As for GGCAGAGCUCAACACAGCGGGGCAAGGUGGCUGUGGCUAGACUCCC, the self-cleavage was 0.01.

In the case of GGCAGAGCUCAACACAGCGGAGCAAAGUCGCUGUGGCUGGACUGCC, the self-cleavage amounted to 0.04. Regarding GGCAGAGCUCAACACAGCGCCGCAAAGUGGCUGUGGCUAGAAUGCC, the self-cleavage amounted to 0.03. As to GGCAGAGCUCAACACAGCGCGGCAAAGUGGCUGUGCCUAGCCUGCC, the self-cleavage was found to be 0.02.

Regarding GGCAGAGCUCAACACAGCGAGGCAAAGCGGCUGUGGUUAGACUGCC, the self-cleavage turned out to be 0. To GGCAGAGCUCAACACAGCGCAGCAAAGUGGCUGUGGCAAGACUGCA belongs 0.55; to GGCAGAGCUCAACACAGCGGGGCAAAGUGUCUGUGGCUAGUUUGCC, 0.11; to GGCAGAGCUCAACACAGCGCCGCAAAGCGGCUGUGGCUAGACUGCC, 0.18. For the variant GGCAGAGCUCAACACAGCGGGACAAAGUGGCUGUUGCUCGACUGGC, the self-cleavage was 0.06. For the variant GGCAGAGCUCAACACAGCGCCACACAGUGGCUGUGGCUAGACUGCC, the self-cleavage came out at 0.23. GGCAGAGCUCAACACAGCGGGGCAAAGUGGCUGUGGCUUGACAGCC: the self-cleavage was found to be 0.32. The same measure for GGCAGAGCUCAACACAGCGCGGCAAAGUGGCUGUCGCCAGACUGCC: 0.02; for GGCAGAGCUCAACACAGCGAGGCAAAGUGGCCGUGGCAAGACUGCC: 0.09; for GGCAGAGCUCAACACAGCGCGCCAAAGAGGCUGUGGCUAGACUGCC: 0.57. The same measure for GGCAGAGCUCAACACAGCGCGUCAAACUGGCUGUGGCUAGACUGCC: 0.6; for GGCAGAGCUCAACACAGCGCGCCACAGUGGCUGUGGCUAGACUGCC: 0.19.
